Source: article PMC12136788
This is one part of the list.

T1: UNK ZnF1-3 (human, UniProt Q9C0B0 31-174)
T1 sequence: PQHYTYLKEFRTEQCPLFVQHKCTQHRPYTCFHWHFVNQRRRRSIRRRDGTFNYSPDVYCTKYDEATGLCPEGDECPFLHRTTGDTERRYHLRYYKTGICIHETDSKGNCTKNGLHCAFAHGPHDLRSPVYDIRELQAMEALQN

B1: chr4:62795864:62795865:+_ENSMUSG00000028358_ENSMUST00000107415|mus_hu|FALSE|FALSE (ssRNA)
RNA: GGGAGUUCUACAGUCCGACGAUCCAGAGUCUAAAUCAAAUCUGAAGAAACAAAAUGAACCCCCAAACAAGGUAAAAAUUGCUAAAAUGUUAGGGAGAGAAAUUAUUAGGGAGUGGAGACAGUAUCUAUACUUCUCUGAAAAAUCAACAGAGGAUUGAGCAUCA
B2: chr7:65705475:65705476:+_ENSG00000169902_ENST00000304842|hu_hu|hu_hu_hu_mus_True|48_68 (ssRNA)
RNA: GGGAGUUCUACAGUCCGACGAUCUCUAUUCGGUGAUGGCACUCCAUGGCAUGCUGGCCCAGGUAAAACACAGUCACAGAACUAAUCACCAGACAUGCCAAGAGUAAGUUCUGCUUCAGCUUCCCAACCAUCUUGAUGUGGUUACAACAGAGGAUUGAGCAUCA
B3: 111595278_111595398_3439_3pUTR_ENSG00000170145_ENST00000304987|human|control|control (ssRNA)
RNA: GGGAGUUCUACAGUCCGACGAUCCAACUUGCAUCAGCAGCUAAGAACUUAGGAUUCAAUGACAAAGCACAGCUUUCCUUUAUUUCCUGUGCAUCUGAUUUCCUGAUGUCUUCUUGAUUUGCCUUGUAGCAAUAUGUGGUUGCUCAACAGAGGAUUGAGCAUCA
B4: 70726784_70726904_1073_CDS_ENSG00000165732_ENST00000354185|human|control|control (ssRNA)
RNA: GGGAGUUCUACAGUCCGACGAUCCAACAUCUGGUCCACUUCAUCCAGGACAACAUGCUUAAGUUUGGUGAGAUCUAGUUUGCCAUUCUGUAUGUGGUCUUUGAUACGACCUGGUGUUCCAACCAGGAUAUCAAUCCCAUUCCUCAACAGAGGAUUGAGCAUCA
B5: chr11:4127340:4127341:+_ENSG00000167325_ENST00000300738|hu_mus|hu_hu_hu_mus_False|58_58 (ssRNA)
RNA: GGGAGUUCUACAGUCCGACGAUCGGCAUAGUCAGGGUGCUUCGUGGUCAAGGUCGCGGCUGUCUCAGCAGCCAGGGUAUCUAGUUCCACUGUGGUGACCCCACUAUAUAGGCCUUGGAUUACUUUCAUGGUGAUCUGAGCAGGCAACAGAGGAUUGAGCAUCA
B6: chr5:128440902:128440903:+_ENSG00000066583_ENST00000173527|hu_mus|hu_hu_hu_mus_True|38_38 (ssRNA)
RNA: GGGAGUUCUACAGUCCGACGAUCUUGAACGGUGCUGCCAAGUCCUUUGGGGUAUUGUUCCGUUAUGAUAACUGGAAUCCCUAAGAUCCGAGCUCCUUGCAACAAUCUCUGUCCCACACUAAUGAUGUCCCCAAAGUAUUUGAUCAACAGAGGAUUGAGCAUCA
B7: chr7:141441981:141441982:+_ENSG00000106028_ENST00000265304|hu_mus|hu_hu_hu_mus_False|18_58 (ssRNA)
RNA: GGGAGUUCUACAGUCCGACGAUCCUCAUGUCUUACAAACUGACGAAAUACCUGUAACACAGGUCUUCGAAACAUGGCUUCUAUUUUUCUUACAACCUAAUCUUUAGGCUUUUCCUACCUGACGAUCAGAAAAGAGAAAAAUGACAACAGAGGAUUGAGCAUCA
B8: 70194340_70194460_2252_CDS_ENSG00000131626_ENST00000253925|human|control|control (ssRNA)
RNA: GGGAGUUCUACAGUCCGACGAUCGCGCCCACUGCCCGGAGGGGAGGAGCUAGCAAGCGAGGAAGCAGGGUAGGGGGGAAUGGAGCUCAUUGAUCUAAAACGACCAAGAUUGUCUAGACUUCCACUGCCAACUCGACUUUCAAUCAACAGAGGAUUGAGCAUCA
B9: 117584449_117584569_2178_CDS_ENSMUSG00000025571_ENSMUST00000138299|mouse|control|control (ssRNA)
RNA: GGGAGUUCUACAGUCCGACGAUCUGGCCCCCCAAUCCACCCUGUCCCUGUCUGCUUAACAGAAGCAGCUCCUCCCCAGUUACUCACAUUGUUGUCUUGGGGCUUAUGAGCCCAGUUCUGCUGGGGACCAGGCUUGAGAGACUCCAACAGAGGAUUGAGCAUCA
B10: chr1:219384882:219384883:+_ENSG00000143353_ENST00000366928|hu_mus|FALSE|FALSE (ssRNA)
RNA: GGGAGUUCUACAGUCCGACGAUCGCUCACUCCUAGAGAUUUCAGUUUUGAGUUUGUCUCCUUGCCCCAAGCAUGCAGAACUAGGUUAUCUGCAGAGCCGUGACACUGGAAGAGCUCAGGGAGCAUGCGGCCACCUUGCUGAAGCAACAGAGGAUUGAGCAUCA
B11: chr18:48442549:48442550:+_ENSG00000082212_ENST00000321341|hu_hu|motif|central (ssRNA)
RNA: GGGAGUUCUACAGUCCGACGAUCAAUUGAUCUAACAUGACCUCUGUCUGAGAUCGAAAUAAAUAAUCCCUUAGGUCUUCGGAAGAUGUGUCCAUACUGGGAGCAGGCAAGACCAACCGUCGGUGUAUAUACAAUUGGCAUUAACAACAGAGGAUUGAGCAUCA
B12: chr16:94913618:94913619:+_ENSMUSG00000022897_ENSMUST00000122284|mus_hu|FALSE|FALSE (ssRNA)
RNA: GGGAGUUCUACAGUCCGACGAUCGUCAUGUAAUGUGCAGGACCUGUAUUAGCAGAAAAUUGGUAUGUUGGAUGUCCAGCUAUGCCAGUCUCUUGGCGGGGAUUGGAGUAGACGGUCAAAUUAACGUCCAUAGCUCCAUUCUGUCAACAGAGGAUUGAGCAUCA
B13: chr6:38652254:38652255:-_ENSG00000124767_ENST00000373365|hu_hu|hu_hu_hu_mus_False|68_68 (ssRNA)
RNA: GGGAGUUCUACAGUCCGACGAUCCGAGAACUUCAUAGCAGGGAAGUCAAGCUUCUGCAGGAGGGUCAUUCCAAGAACCCUCGUAUAAAAAUCCAGGGACUUCUUAGGAUCCUUAAUUCUUAGCAUCGUUUGCUGCAGUAGAAACAACAGAGGAUUGAGCAUCA
B14: chr14:76904430:76904431:+_ENSMUSG00000022010_ENSMUST00000022587|mus_mus|mus_mus_mus_hu_True|8_28 (ssRNA)
RNA: GGGAGUUCUACAGUCCGACGAUCUGCAGCCAAAAACACCCUCGUGGAAAAAAAGAGGGAACACCAGCAGCCUUGUAUAAGCUAGAUAAAAUCUUCUGGCUUUCCGCAGCUCAGGGCGAAACAGAAAUGGUGCUGGCUAAUUUACAACAGAGGAUUGAGCAUCA
B15: chr12:16048344:16048345:+_ENSG00000023734_ENST00000419869|hu_hu|hu_hu_hu_mus_True|58_68 (ssRNA)
RNA: GGGAGUUCUACAGUCCGACGAUCAGAUCGUCCAUAAGUAAUAACCAAAAUCUCUCCUUCAGGAAUAUAUUCCAUACUACUAACAGACAUAUUAAAAUUCAGAGAUUUCACUUCUGUCAUUGUGGCAUGAUCCCAGAGCCGAACCAACAGAGGAUUGAGCAUCA
B16: chr4:56291666:56291667:+_ENSG00000134851_ENST00000381334|hu_hu|motif|central (ssRNA)
RNA: GGGAGUUCUACAGUCCGACGAUCACAGUAUUUUUCCAUCACUUUUAGUUGUAAUGUACACUAUGUACAGAAAGAUAAUACGGCCGGUUUUAAACUAAAUAUAGAUGAACAAACAGCUUGUUAAAAACCAGAAUCAGGGCUUAUCAACAGAGGAUUGAGCAUCA
B17: chrX:71549762:71549763:+_ENSMUSG00000019087_ENSMUST00000019231|mus_mus|mus_mus_mus_hu_False|8_8 (ssRNA)
RNA: GGGAGUUCUACAGUCCGACGAUCAAACCCGUGUACUUCUUAUUGUUAGCACAACAUCACCAGAAAACGAUAACGACAGCCAAGCAGGACAGACAGUUAAGUAGUACUUCCACACUCCCAAACUCAGAGGAACCUCAAACCUUACAACAGAGGAUUGAGCAUCA
B18: chr16:32231720:32231721:-_ENSMUSG00000035764_ENSMUST00000042732|mus_mus|motif|central (ssRNA)
RNA: GGGAGUUCUACAGUCCGACGAUCUUGACAAAUUUAAUUCUCAAGGACCCCAAGAACCCCAGCGAGUCACUCUCUGUCCCGGAUUUUAUUAGAUUUAAAACAAAAUAUACAUACAGCAAUCAUGUAAAAAGUACAAAGAUUUUACAACAGAGGAUUGAGCAUCA
B19: 114882305_114883836_1875_CDS_ENSG00000102024_ENST00000355899|human|control|control (ssRNA)
RNA: GGGAGUUCUACAGUCCGACGAUCCAUGACCAUCUUGGGCUUUACUUCCACAAGGUCUUCAGGGAGAGCAUACACUCUGGCUCCGAUUCUUCUAGCCAUUGACACUGCAUACUUGGCAUUAUUGUGCUUGUCAUCUUCUGUUAGCAACAGAGGAUUGAGCAUCA
B20: chr8:104447970:104447971:+_ENSG00000164934_ENST00000297579|hu_hu|hu_hu_hu_mus_False|48_98 (ssRNA)
RNA: GGGAGUUCUACAGUCCGACGAUCAUACACUUCCCUGCUUCGACUUUUGUCCACAGGAAAGAUUCUAAUAGACUUAUCAAAGCUGGCAGACACAAACUCCUUCCCAGUGGGAGAGUAGUCCACAUCAAGUACUGCAGACACGUGCAACAGAGGAUUGAGCAUCA
B21: chr18:12984129:12984130:+_ENSG00000085415_ENST00000262124|hu_hu|motif|central (ssRNA)
RNA: GGGAGUUCUACAGUCCGACGAUCCUUUCUGCCAGCAGAAGAUCCAUUUAAUGAAUUCUGAAGACUUGGAAUAGUUGAACCGGGGGAAGGAUUUGAGGUUCCCUGCUGAGAACUCCCAUUGACUGGGCUCCCAUUACCUUUCAACAACAGAGGAUUGAGCAUCA
B22: chr4:109034340:109034341:+_ENSMUSG00000028552_ENSMUST00000102729|mus_hu|FALSE|FALSE (ssRNA)
RNA: GGGAGUUCUACAGUCCGACGAUCCUCUUCUCUAGCUUUUGCCAAUUCUUCUUCGUAAGUGGAGAUCUGCGAUUCCUGACUAGUUAAUUCAGCUUUCAGAGAAGAGAUCAGUUGGGCCUCCUCAGCACAUUUCUUUCUGACUUCCAACAGAGGAUUGAGCAUCA

target: T1, UNK ZnF1-3; test: nsRBNS (natural sequence RNA bind-n-seq); RBNS binding buffer (assumed for nsRBNS): 25 mM Tris pH 7.5, 150 mM KCl, 3 mM MgCl2, 0.01% Triton X-100, 500 ug/ml BSA, 20 U/ml SUPERase-In, 4 C; UNK is unkempt and MSI1 is Musashi-1; names of the RNAs are library labels; protein concentration not given here; high values mean tight binding

Binder | binding signal [enrichment R]
B1 | 1.56
B2 | 0.469
B3 | 0.59
B4 | 0.475
B5 | 0.991
B6 | 0.727
B7 | 0.609
B8 | 1.49
B9 | 0.64
B10 | 1.15
B11 | 1.16
B12 | 0.917
B13 | 0.741
B14 | 1.9
B15 | 0.853
B16 | 1.19
B17 | 1.56
B18 | 2.25
B19 | 0.672
B20 | 0.887
B21 | 0.834
B22 | 0.575
